From the supplement of paper PMC4604168 (melanoma cell lines)
The other results are listed elsewhere or left out. Most values come without repeats; read them as rough.

Experiments:
Experiment in all cases: cell count relative to DMSO control; melanoma cells; higher = more viable cells
Conditions in all cases: library dose: low library concentration; 72 h
MZ2-MEL = system: MZ2-MEL
MeWo = system: MeWo
RPMI7951 = system: RPMI7951
RVH-421 = system: RVH-421
SkMel28 = system: SkMel28
SkMel2 = system: SkMel2
SkMel30 = system: SkMel30
UACC62 = system: UACC62
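Also: cell number obtained by counting DAPI-stained nuclei in high-throughput microscope images with image analysis software, screen run in 1,536-well plates.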

SMILES | cell count (MZ2-MEL) | cell count (MeWo) | cell count (RPMI7951) | cell count (RVH-421) | cell count (SkMel28) | cell count (SkMel2) | cell count (SkMel30) | cell count (UACC62)
CC(=O)O[C@@]12CO[C@@H]1C[C@H](O)[C@@]1(C)C(=O)[C@H](O)C3=C(C)[C@@H](OC(=O)[C@H](O)[C@@H](NC(=O)OC(C)(C)C)c4ccccc4)C[C@@](O)([C@@H](OC(=O)c4ccccc4)[C@H]21)C3(C)C [Docetaxel] + CCCS(=O)(=O)Nc1ccc(F)c(C(=O)c2c[nH]c3ncc(Cl)cc23)c1F [PLX4720] (first compound 0.0001 µM, partner dose 0.08 µM) | 39.8% | 42.7% | 38.5% | 55.8% | 32.7% | 43% | 31.7% | 38.6%
Nc1ccn([C@@H]2O[C@H](CO)[C@@H](O)C2(F)F)c(=O)n1 [gemcitabine] + Nc1cccc2c1CN(C1CCC(=O)NC1=O)C2=O [lenalidomide] (first compound 0.0004 µM, partner dose 1 µM) | 95.1% | 94.4% | 91.5% | 86.1% | 96.4% | 100% | 105% | 84.3%
Nc1nc(F)nc2c1ncn2[C@@H]1O[C@H](CO)[C@@H](O)[C@@H]1O [fludarabine] + Clc1ccc(Nc2nnc(Cc3ccncc3)c3ccccc23)cc1 [vatalanib] (first compound 0.2 µM, partner dose 2 µM) | 90% | 28.8% | 79% | 82.6% | 78.7% | 3.25% | 15.2% | 79.4%
CC(=O)c1c(C)c2cnc(Nc3ccc(N4CCNCC4)cn3)nc2n(C2CCCC2)c1=O [palbociclib] + OCc1c[nH]c2ccccc12 [Indole-3-carbinol] (first compound 0.04 µM, partner dose 0.8 µM) | 89.3% | 84.3% | 87% | 71.5% | 76.4% | 83.6% | 83.8% | 86.2%
Nc1ccn([C@@H]2O[C@H](CO)[C@@H](O)C2(F)F)c(=O)n1 [gemcitabine] + C=CCNC1=C2C[C@@H](C)C[C@H](OC)[C@H](O)[C@@H](C)/C=C(\C)[C@H](OC(N)=O)[C@@H](OC)/C=C\C=C(/C)C(=O)NC(=CC1=O)C2=O [Tanespimycin] (first compound 0.0004 µM, partner dose 0.002 µM) | 90.7% | 94.3% | 101% | 78.7% | 99.1% | 98.3% | 79.2% | 81.1%
Nc1nc(F)nc2c1ncn2[C@@H]1O[C@H](CO)[C@@H](O)[C@@H]1O [fludarabine] + CC(=O)c1c(C)c2cnc(Nc3ccc(N4CCNCC4)cn3)nc2n(C2CCCC2)c1=O [palbociclib] (first compound 0.2 µM, partner dose 0.04 µM) | 75.2% | 27.7% | 74.7% | 89.4% | 66.6% | 5.16% | 16.4% | 68%
CC(=O)O[C@@]12CO[C@@H]1C[C@H](O)[C@@]1(C)C(=O)[C@H](O)C3=C(C)[C@@H](OC(=O)[C@H](O)[C@@H](NC(=O)OC(C)(C)C)c4ccccc4)C[C@@](O)([C@@H](OC(=O)c4ccccc4)[C@H]21)C3(C)C [Docetaxel] + OCc1c[nH]c2ccccc12 [Indole-3-carbinol] (first compound 0.0001 µM, partner dose 0.8 µM) | 43.9% | 41.3% | 33% | 91.2% | 32.3% | 40.3% | 39.4% | 44.5%
CC(=O)O[C@@]12CO[C@@H]1C[C@H](O)[C@@]1(C)C(=O)[C@H](O)C3=C(C)[C@@H](OC(=O)[C@H](O)[C@@H](NC(=O)OC(C)(C)C)c4ccccc4)C[C@@](O)([C@@H](OC(=O)c4ccccc4)[C@H]21)C3(C)C [Docetaxel] + C=C(c1ccc(C(=O)O)cc1)c1cc2c(cc1C)C(C)(C)CCC2(C)C [Bexarotene] (first compound 0.0001 µM, partner dose 2 µM) | 43.2% | 36.6% | 30.6% | 50% | 44.2% | 39% | 33.5% | 42.9%
CC(=O)O[C@@]12CO[C@@H]1C[C@H](O)[C@@]1(C)C(=O)[C@H](O)C3=C(C)[C@@H](OC(=O)[C@H](O)[C@@H](NC(=O)OC(C)(C)C)c4ccccc4)C[C@@](O)([C@@H](OC(=O)c4ccccc4)[C@H]21)C3(C)C [Docetaxel] + Cn1c(=O)n(-c2ccc(C(C)(C)C#N)cc2)c2c3cc(-c4cnc5ccccc5c4)ccc3ncc21 [NVP-BEZ235] (first compound 0.0001 µM, partner dose 0.004 µM) | 44.7% | 42.7% | 36.8% | 57.6% | 39.9% | 33.9% | 36.9% | 33.4%
CC(=O)O[C@@]12CO[C@@H]1C[C@H](O)[C@@]1(C)C(=O)[C@H](O)C3=C(C)[C@@H](OC(=O)[C@H](O)[C@@H](NC(=O)OC(C)(C)C)c4ccccc4)C[C@@](O)([C@@H](OC(=O)c4ccccc4)[C@H]21)C3(C)C [Docetaxel] + C#Cc1cccc(Nc2ncnc3cc(OCCOC)c(OCCOC)cc23)c1 [erlotinib] (first compound 0.0001 µM, partner dose 0.8 µM) | 42.8% | 36.8% | 32.3% | 49.8% | 36.4% | 37.8% | 28.9% | 35.3%
Nc1ncn([C@H]2C[C@H](O)[C@@H](CO)O2)c(=O)n1 [decitabine] + Cn1c(Nc2ccc(C(F)(F)F)cc2)nc2cc(Oc3ccnc(-c4ncc(C(F)(F)F)[nH]4)c3)ccc21 [CHIR265] (first compound 0.1 µM, partner dose 0.08 µM) | 64.6% | 73.2% | 48.5% | 64.8% | 51.8% | 85.1% | 50.7% | 46.9%
Nc1ncn([C@H]2C[C@H](O)[C@@H](CO)O2)c(=O)n1 [decitabine] + CC(=O)c1c(C)c2cnc(Nc3ccc(N4CCNCC4)cn3)nc2n(C2CCCC2)c1=O [palbociclib] (first compound 0.1 µM, partner dose 0.04 µM) | 81.1% | 78.5% | 80.9% | 69.4% | 75.1% | 85.9% | 79% | 65.7%
CC(=O)O[C@@]12CO[C@@H]1C[C@H](O)[C@@]1(C)C(=O)[C@H](O)C3=C(C)[C@@H](OC(=O)[C@H](O)[C@@H](NC(=O)OC(C)(C)C)c4ccccc4)C[C@@](O)([C@@H](OC(=O)c4ccccc4)[C@H]21)C3(C)C [Docetaxel] + Nc1nc(F)nc2c1ncn2[C@@H]1O[C@H](CO)[C@@H](O)[C@@H]1O [fludarabine] (first compound 0.0001 µM, partner dose 0.2 µM) | 44.3% | 20.6% | 34.3% | 64.3% | 26.9% | 8.37% | 17.5% | 30.4%
Nc1nc(F)nc2c1ncn2[C@@H]1O[C@H](CO)[C@@H](O)[C@@H]1O [fludarabine] + Cn1c(Nc2ccc(C(F)(F)F)cc2)nc2cc(Oc3ccnc(-c4ncc(C(F)(F)F)[nH]4)c3)ccc21 [CHIR265] (first compound 0.2 µM, partner dose 0.08 µM) | 91.5% | 33.8% | 49% | 57.3% | 43.5% | 4% | 16% | 43.7%
Nc1nc(F)nc2c1ncn2[C@@H]1O[C@H](CO)[C@@H](O)[C@@H]1O [fludarabine] + C[C@]1(c2nc3c(C(N)=O)cccc3[nH]2)CCCN1 [Veliparib] (first compound 0.2 µM, partner dose 1.4 µM) | 107% | 37.2% | 99.1% | 127% | 56.3% | 4.5% | 15.9% | 70.1%
Nc1ncn([C@H]2C[C@H](O)[C@@H](CO)O2)c(=O)n1 [decitabine] + C[C@]1(c2nc3c(C(N)=O)cccc3[nH]2)CCCN1 [Veliparib] (first compound 0.1 µM, partner dose 1.4 µM) | 83.4% | 120% | 85.7% | 87% | 82.2% | 93.8% | 86.8% | 66.1%
Nc1ccn([C@@H]2O[C@H](CO)[C@@H](O)C2(F)F)c(=O)n1 [gemcitabine] + Clc1ccc(Nc2nnc(Cc3ccncc3)c3ccccc23)cc1 [vatalanib] (first compound 0.0004 µM, partner dose 2 µM) | 85.2% | 70.9% | 77.8% | 60.6% | 79.8% | 97% | 80.6% | 80.6%
CC(=O)O[C@@]12CO[C@@H]1C[C@H](O)[C@@]1(C)C(=O)[C@H](O)C3=C(C)[C@@H](OC(=O)[C@H](O)[C@@H](NC(=O)OC(C)(C)C)c4ccccc4)C[C@@](O)([C@@H](OC(=O)c4ccccc4)[C@H]21)C3(C)C [Docetaxel] + C[C@]1(c2nc3c(C(N)=O)cccc3[nH]2)CCCN1 [Veliparib] (first compound 0.0001 µM, partner dose 1.4 µM) | 41.3% | 44.7% | 28.9% | 56.2% | 34.9% | 38.5% | 33.1% | 35.5%
Nc1ncn([C@H]2C[C@H](O)[C@@H](CO)O2)c(=O)n1 [decitabine] + Clc1ccc(Nc2nnc(Cc3ccncc3)c3ccccc23)cc1 [vatalanib] (first compound 0.1 µM, partner dose 2 µM) | 85.4% | 83.9% | 71% | 91% | 82.1% | 91.6% | 110% | 76.3%
Nc1nc(F)nc2c1ncn2[C@@H]1O[C@H](CO)[C@@H](O)[C@@H]1O [fludarabine] + OCc1c[nH]c2ccccc12 [Indole-3-carbinol] (first compound 0.2 µM, partner dose 0.8 µM) | 89.9% | 32.7% | 89.2% | 85.7% | 74.7% | 5.65% | 16.8% | 68.8%
CC(=O)O[C@@]12CO[C@@H]1C[C@H](O)[C@@]1(C)C(=O)[C@H](O)C3=C(C)[C@@H](OC(=O)[C@H](O)[C@@H](NC(=O)OC(C)(C)C)c4ccccc4)C[C@@](O)([C@@H](OC(=O)c4ccccc4)[C@H]21)C3(C)C [Docetaxel] + Cc1nc(Nc2ncc(C(=O)Nc3c(C)cccc3Cl)s2)cc(N2CCN(CCO)CC2)n1 [dasatanib] (first compound 0.0001 µM, partner dose 0.004 µM) | 38% | 46.4% | 26.8% | 57.4% | 42.6% | 36.8% | 37.4% | 47.2%
